Data as given in US9050375B2, “Bi-specific digoxigenin binding antibodies” (priority 2009, dated 2015).

Key:
[1] = tested on: LeY positive MCF7 cells; assay: FACS analysis of <LeY>-<DIG> and DIG-eGFP; type: cell-based; conditions: 3.43 nM, 4° C.
Method: For these analyses we used LeY positive MCF7 cells and the bispecific <LeY>-<DIG> antibody. 3×10^5 cells were seeded per well of a 96-well-plate and used immediately. 3.43 nM of the <LeY>-<DIG> bispecific antibody in FACS buffer (PBS containing 5% FCS) was added to the wells. A <DIG> antibody at the same concentration was used as a non-targeting control. For detection of bound antibodies, a secondary Cy5 labeled antibody (Jackson Immunoresearch 709-176-1490; Cy5 F(ab′)2 Donkey anti-human IgG (H+L)) was added to a final concentration of 3.43 nM. After washing in FACS buffer the cells were incubated for one hour at 4° C. and then analyzed with the FACS canto II (BD Biosciences). To show <LeY>-<DIG> bispecific antibody mediated eGFP delivery to cells, 3.43 nM of the <LeY>-<DIG> bispecific antibody in FACS buffer (PBS containing 5% FCS) pre-incubated with a twofold molar amount of both [1:2] and [1:3] DIG-eGFP were added to the wells. After washing in FACS buffer the cells were analyzed with the FACS canto II (BD Biosciences).
To analyze the ability of DIG-eGFP to monitor internalization, we performed FACS experiments. For these analyses we used LeY positive MCF7 cells and the bispecific <LeY>-<DIG> antibody. 3×10^5 cells were seeded per well of a 96-well-plate and used immediately. […] The cells were then analyzed with the FACS canto II (BD Biosciences).

[2] = tested on: AHA1 mRNA in MCF-7 breast cancer cells; assay: bDNA quantification after DIG-labeled siRNA-lipid nanoparticles with <Target-DIG> antibodies; type: cell-based; conditions: no siRNA; 3.24 nM antibody; MCF-7, 12 h
Method: DIG-labeled siRNA-lipid nanoparticles containing 1 pmol of AHA1-, DIG-coupled AHA1-, or luciferase (LUC)-siRNAs were incubated with 3.24 pmol of bispecific antibodies directed against either the tumor-associated LewisY oligosaccharide and DIG <LeY-DIG> or against the sialic acid-binding transmembrane protein, CD22, and DIG <CD22-DIG> or with Dulbecco's Phosphate Buffered Saline (D-PBS) (Invitrogen, Carlsbad, Calif.) in a final volume of 200 μl Opti-MEM® (Invitrogen GmbH, Darmstadt, Germany) at RT for 30 min.
MCF-7 cells were seeded on a 96-well plate with a density of 15,000 cells/well in 80 μl medium (RPMI 1640 Medium, 10% fetal calf serum, 100 U/ml penicillin/streptomycin; Biochrom AG, Berlin, Germany) and incubated overnight in a cell incubator (37° C., 95% H2O, 5% CO2). Following pre-incubation of DIG-labeled siRNA-lipid nanoparticles with <Target-DIG> bispecific antibodies (see above), 20 μl of the mixtures were added to MCF-7 cells, leading to a final volume of 100 μl containing 1 nM siRNA and no antibodies (no AB) or 1 nM siRNA and 3.24 nM of either <LeY-DIG> (LeY) or <CD22-DIG> (CD22) antibodies. Cells were incubated for 12 hours in a cell incubator. […] After incubation, cells were lysed and AHA1- and GAPDH-mRNA concentrations were quantified using a commercially available bDNA-quantification system (Affymetrix Inc., Fremont, Calif.). […]

B1: LeY-DIG: bispecific antibody against LewisY antigen (B3-derived) and DIG; SEQ. ID NO. 57, 58 (antibody)
heavy: DVKLVESGGGLVQPGGSLKLSCATSGFTFSDYYMYWVRQTPEKRLEWVAYISNDDSSAAYSDTVKGRFTISRDNARNTLYLQMSRLKSEDTAIYYCARGLAWGAWFAYWGQGTLVTVSS[human IgG1 constant region not shown]GGGGSGGGGSQVQLVESGGGLVKPGGSLRLSCAASGFTFSDYAMSWIRQAPGKCLEWVSSINIGATYIYYADSVKGRFTISRDNAKNSLYLQMNSLRAEDTAVYYCARPGSPYEYDKAYYSMAYWGQGTTVTVSSGGGGSGGGGSGGGGSDIQMTQSPSSLSASVGDRVTITCRASQDIKNYLNWYQQKPGKAPKLLIYYSSTLLSGVPSRFSGSGSGTDFTLTISSLQPEDFATYYCQQSITLPPTFGCGTKVEIK
light: DVLMTQSPLSLPVSLGDQASISCRSSQIIVHSNGNTYLEWYLQKPGQSPKLLIYKVSNRFSGVPDRFSGSGSGTDFTLKISRVEAEDLGVYYCFQGSHVPFTFGSGTKLEIKRTVAAPSVFIFPPSDEQLKSGTASVVCLLNNFYPREAKVQWKVDNALQSGNSQESVTEQDSKDSTYSLSSTLTLSKADYEKHKVYACEVTHQGLSSPVTKSFNRGEC
binding to MCF7 cells (FACS, Cy5 labeled secondary antibody) [1]: clear binding to the LeY expressing MCF7 cells
relative AHA1-mRNA concentration, only antibody [2]: 94.6%
